Among all 360,000 compounds or so, about 6,000 (1.7%) were called active. Inconclusive means that the source gave no clear call. Such entries were picked first, then a sample of the others. Calls follow the shape of the dose curve; as a rule, active = well fitted cell-killing curve with a large enough effect; inconclusive = small, poorly fitted or top-dose-only effect, or effect the other way; inactive = flat fitted curve, though single readings scatter. No potency is given beside an inconclusive call; the fits are too rough.
Experiment: qHTS for induction of synthetic lethality in tumor cells producing 2HG: qHTS for the HT-1080-NT fibrosarcoma cell line;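 also: NT is the 2HG producing partner of a matched IDH1 knockdown line; nearly all actives have a fitted effect of over 55% in size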;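 as to activity, negative = less viability: 0% = DMSO-treated cells and -100% = media-only wells without cells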
Details: HT-1080-NT fibrosarcoma viability, CellTiter-Glo ATP luminescence, 48 h; activity, negative = less viability: at 46.1 µM (top of the series) unless noted
Procedure, shortened: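 750 cells/well, RPMI + 5% FBS; 2 h settle, compound pin-transfer, 48 h at 37 degrees C. CellTiter-Glo 10 min RT, luminescence. Normalized to DMSO and media-only wells.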
Potency is read from the fitted curve at half-maximal effect; tags tell the direction and shape of the fitted curve.

Structure (SMILES) | Potency | activity, negative = less viability
CCCn1c(/C=C/c2ccccc2)nc2ccccc21 | active: 10 µM | 
COc1ccccc1-c1nnc(SCC(=O)Nc2cccnc2Cl)n1C |  | inconclusive: 4.44% [cytotoxic]
Clc1ccc(/C=C\c2nccc3c2[nH]c2ccccc23)cc1 | active: 20.6 µM | 
COc1cc(OC)c(OC)cc1CNc1cc(C)ccc1OC | inconclusive [cytotoxic, partial curve] | 
CC(=O)/C(=N\Nc1ccc(C)cc1)Sc1nncn1C | inconclusive [cytotoxic, partial curve] | 
CCc1nc2ccc(C(=O)NCc3cccs3)cn2c1N(CC)Cc1cccc(Br)c1 | inconclusive [cytotoxic, single point] | 
OC(c1ccccc1)(c1nc(-c2ccccc2)cs1)C(F)(F)F (configuration not stated) | active: 20.6 µM | 
Cc1ccc(S(=O)(=O)NC(=O)c2cccc(N(C)C)c2)cc1 |  | inactive: 7.08%
CCCCn1c(N)c(C(=S)NC(=O)CC(C)C)c(=O)n(C)c1=O | inconclusive [cytotoxic, single point] | 
CCCOc1ccc(C(=O)NNC(=S)NC(C)=O)cc1 | active: 7.08 µM | 
CN(C)S(=O)(=O)c1ccc(-n2cccc2)cc1 | inconclusive [rising, single point] | 
CCCCCCCCCCCCCCCC[n+]1cccc2ccccc21 | active: 6.51 µM | 
COc1ccc(Cl)cc1NC(=S)NCc1cccs1 |  | inactive: 0.0005%
COc1ccc(NC(=O)COc2coc(CN3CCN(c4ccccc4)CC3)cc2=O)cc1 |  | inactive: 1.31%
O=C1OC(/C(=C\Nc2cc(Cl)ccc2O)[N+](=O)[O-])c2ccccc21 (configuration not stated) | inconclusive [cytotoxic, partial curve] | 
C#CCOCCOCCOCCNc1nc(N2CCN(C(=O)[C@H](CCCCN)n3cc([C@@H](N)CO)nn3)CC2)nc(N2CCN(C(=O)[C@H](CCCCN)n3cc([C@@H](N)CC(C)C)nn3)CC2)n1 |  | inactive: -5.76%
Cc1cc(Sc2nnc(N)s2)c2ccccc2n1 | inconclusive [cytotoxic, partial curve] | 
c1ccc(CN2CCN(c3ncnc4c3[nH]c3ccccc34)CC2)cc1 | inconclusive [cytotoxic, single point] | 
O=C(Nc1ccc(N2CCOCC2)cc1)c1cnccn1 |  | inactive: -2.64%
O=C1SCCC1NS(=O)(=O)c1ccc([N+](=O)[O-])cc1 (configuration not stated) |  | inactive: 0%
O=C(NC(c1ccc(F)cc1)c1ccc2ccccc2n1)C1CCN(CCOc2ccc(Cl)cc2Cl)CC1 (configuration not stated) | inconclusive [cytotoxic, single point] | 
CN(C)N1C(=O)C2C3C=CC(O3)C2C1=O (configuration not stated) |  | inactive: 0%
O=C(/C=C/Nc1ccc(F)cc1Br)c1ccccc1 | inconclusive [cytotoxic, partial curve] | 
CN(C)c1ccc(N=Nc2ccccc2C(=O)OCC(=O)NCC2CCCCC2)cc1 |  | inactive: -1.79%
COc1cccc(/C=N/NC(=O)c2cc3c(OC)ccc(OC)c3[nH]2)c1O | inconclusive [cytotoxic, partial curve] | 
Cc1sc2nc(CN3CCCC3)nc(N3CCN(S(=O)(=O)c4ccccc4)CC3)c2c1C |  | inactive: -16%

Structure (SMILES) | Potency | activity, negative = less viability
COc1cc(C(=O)C(=O)N2CCN(c3ccc(C)cc3)CC2)cc2ccccc12 |  | inactive: 5.71%
CC(=O)c1c(C)[nH]c(C(=O)OCC(=O)NCCc2ccc(Cl)cc2)c1C | inconclusive [cytotoxic, single point] | 
Cc1ccccc1C1CC(=O)NC2=C1C(=O)CCC2 (configuration not stated) |  | inactive: 2.23%
CCN1/C(=C/c2ccc3cc(C)ccc3[n+]2CC)Sc2cc(C)c(C)cc21 | active: 18.4 µM | 
COc1ccc(NC(=O)c2cc(-c3ccccc3OC)on2)cc1 | active: 4.47 µM | 
O=[N+]([O-])c1ccc2c3n([n+]([O-])c2c1)CCN=C3c1ccc(Cl)cc1 |  | inactive: -2.15%
CCC(NC(=O)NCCCn1ccnc1)(C(F)(F)F)C(F)(F)F |  | inactive: -2.34%
Cc1ccc(-c2nc(SCC(=O)NCC3CCCO3)c(-c3ccc(Cl)cc3)[nH]2)cc1 (configuration not stated) |  | inactive: 2.99%
Cc1cccnc1C(NC(=O)C1CCN(Cc2ccc(Cl)cc2)CC1)c1ccc(F)cc1 (configuration not stated) | inconclusive [cytotoxic, single point] | 
Cc1cc(C)cc(N=Cc2[nH]c3ccc(Br)c(Cl)c3c2O)c1 | inconclusive [cytotoxic, single point] | 
Cc1cc(SCC(=O)Nc2cccc(S(=O)(=O)NC3=NCCCCC3)c2)c(C)cc1Br | inconclusive [cytotoxic, partial curve] | 
CC(C)C(=O)N1CCN(c2ccc(NC(=O)c3ccc([N+](=O)[O-])o3)cc2Cl)CC1 | active: 7.31 µM | 
CN1/C(=C\C(=O)COC(=O)c2ccco2)C(C)(C)c2ccccc21 |  | inactive: -0.741%
CCC(C)(C(=O)NC1CCCC1)N(C(=O)Cc1cccs1)c1c(C)n(C)n(-c2ccccc2)c1=O (configuration not stated) |  | inactive: -1.38%
O=C(NCc1ccco1)c1ccc2c(c1)N(Cc1ccccc1)CCS2 |  | inactive: 0%
Cc1nc(N)sc1-c1csc(Nc2ncccn2)n1 | inconclusive [cytotoxic, partial curve] | 
COc1cc2[nH]c(=O)n(CCC(=O)N3CCN(c4cc(Cl)ccc4C)CC3)c(=O)c2cc1OC | inconclusive [cytotoxic, single point] | 
CC(C)NS(=O)(=O)c1ccc(NC(=S)NC(=O)c2ccc(-c3ccccc3)cc2)cc1 | inconclusive [cytotoxic, single point] | 
Cc1ccc(C(=O)N2CCCC(c3ccc(Cl)cc3)=N2)cc1 | inconclusive [cytotoxic, partial curve] | 
CN1CCN(C2Cc3ccc(Cl)cc3Sc3ccc(F)cc32)CC1 (configuration not stated) | active: 14.6 µM | 
Cc1nc2ccccc2c(=O)n1NC(=O)c1c(O)c2c(n(CC(C)C)c1=O)CCCC2 | active: 20 µM | 
CSc1ccccc1C(=O)NCC(c1ccco1)N1CCCCC1 (configuration not stated) |  | inactive: 19.2%
Cc1ccc(S(=O)(=O)c2nc(S(=O)(=O)c3ccccc3)sc2N2CCN(CCO)CC2)cc1 | inconclusive [cytotoxic, single point] | 
Cc1ccc(CS(=O)Cc2ccc(C(=O)N3CCN(c4ccccc4)CC3)o2)cc1 (configuration not stated) |  | inactive: -5.42%
CCCCn1c(=O)[nH]c(=O)c2c1ncn2Cc1ccco1 |  | inactive: 23.3%
CC(/C=C/c1ccc(O)cc1)=NNc1ccccc1 | inconclusive [cytotoxic, partial curve] | 

Structure (SMILES) | Potency | activity, negative = less viability
CCCCCCCNC(=O)C1(CC2CC(c3cccc(Br)c3)=NO2)CCNCC1 (configuration not stated) | inconclusive [cytotoxic, single point] | 
CCC1=C(CC2NCCc3ccccc32)CC2c3cc(OC)c(OC)cc3CCN2C1 (configuration not stated) | inconclusive [cytotoxic, partial curve] | 
O=S(=O)(c1cccc(S(=O)(=O)N2CCCC2)c1)N1CCCCC1 |  | inactive: 3.83%
Clc1ccccc1-c1nn2c(Cn3cnc4ccccc43)nnc2s1 |  | inactive: 3.88%
O=c1nc(/C=C/c2cc([N+](=O)[O-])ccc2Cl)cc(C(F)(F)F)[nH]1 |  | inactive: 3.56%
CC(=O)c1c(-c2ccccc2)[nH]c2ccccc12 | inconclusive [cytotoxic, partial curve] | 
Cc1ccc(C(=O)Nc2ncccc2O)o1 |  | inactive: -1.38%
COc1ccc(/C=N/Nc2nnc(-c3ccccc3)c(=O)[nH]2)cc1 | active: 13 µM | 
COc1ccccc1N1CCN(C(=O)c2c(-c3ccccc3Cl)noc2C)CC1 | inconclusive [cytotoxic, single point] | 
COc1ccc(NC(=O)COc2cccc3c2OC(C)(C)C3)c(OC)c1 |  | inactive: -5.29%
O=C(CSc1nc(Nc2ccccc2)nc(N2CCOCC2)n1)Nc1ccc2c(c1)OCCO2 |  | inactive: 9.14%
COc1ccccc1C(=O)COC(=O)C1CCN(S(=O)(=O)c2ccccc2)CC1 |  | inactive: 0.748%
Cc1ccc(C(=O)C[n+]2cc(-c3ccccc3)n3c2CCCCC3)cc1 | inconclusive [cytotoxic, single point] | 
COc1cc(N2C(=O)C=CC2=O)c(OC)cc1Cl | active: 18.4 µM | 
NNC(=O)c1[nH]c2ccc([N+](=O)[O-])cc2c1-c1ccccc1 | inconclusive [cytotoxic, full curve, poor fit] | 
CCCC(=O)N(CCc1ccc(OC)cc1)Cc1nc2ccccc2c(=O)[nH]1 | inconclusive [cytotoxic, single point] | 
O=C(CSc1nc2ccccc2n1Cc1ccccc1Cl)N/N=C/c1ccccc1C(=O)O |  | inactive: -1.42%
Cc1ccc(OCC(=O)N(Cc2ccco2)C2CCS(=O)(=O)C2)cc1C (configuration not stated) |  | inactive: -0.85%
O=C(Nc1ccccc1)N1CCCC(CNS(=O)(=O)Cc2ccccc2)C1 (configuration not stated) |  | inactive: -6.75%
C=CCn1c(Oc2cc(C)ccc2C)nc2c1c(=O)n(C)c(=O)n2C | inconclusive [cytotoxic, single point] | 
COc1cc(C(=O)NCC(c2ccco2)N2CCCC2)ccc1OCc1ccc(Cl)cc1Cl (configuration not stated) | inconclusive [cytotoxic, single point] | 
Cc1cc(C)nc(NC2=NCCN2C(=O)NC2CCCCC2)n1 |  | inactive: 6.65%
CC1(C(=O)NCc2ccccc2Br)CCN1Cc1ccc(-c2ccccc2)o1 (configuration not stated) | inconclusive [cytotoxic, single point] | 
O=C(NCC1CCCC(CNC(=O)N2CCc3ccccc32)C1)N1CCc2ccccc21 (configuration not stated) | inconclusive [cytotoxic, partial curve] | 
CC(=O)NC(C)(c1ccccc1)c1nc(-c2csc3ccccc23)cs1 (configuration not stated) | inconclusive [cytotoxic, single point] | 

Reference: PubChem BioAssay AID686970 (National Center for Advancing Translational Sciences (NCATS), 2013)
